Source: the supplement of paper PMC9151546
Many values rest on one well or one pass, so single values are uncertain.

How the values were obtained:
CHO-K1 [1] = assay: relative survival (nuclei to bead ratio vs DMSO control) (% of vehicle control); higher = more surviving cells
Description: (§1)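 Flow-cytometric in vitro micronucleus assay (Litron MicroFlow) in CHO-K1 cells in 96-well plates, 19 concentrations (4.5-200 µM, n=1 per concentration). Without S9, cells were exposed for 24 h and sampled at 48 h. With Aroclor 1254-induced rat liver S9, cells were exposed for 3-4 h and sampled at 27-28 h. Read-outs are %MN and %hypodiploid nuclei relative to nucleated events, and relative survival as the nuclei-to-bead ratio versus the 1% DMSO vehicle control (x100).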

CHO-K1 [2] = assay: micronucleus frequency (% of nucleated events); higher = more micronuclei (genotoxic)
CHO-K1 [3] = assay: hypodiploid nuclei frequency (% of nucleated events); higher = more hypodiploid events (aneugenic)
Description: as §1
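Wherever hypodiploid nuclei frequency (% of nucleated events) is given: hypodiploid nuclei gated on a flow cytometer with 488 nm excitation after SYTOX Green staining, cultures at 37 °C, positive controls vinblastine without S9 and cyclophosphamide with S9.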
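Wherever micronucleus frequency (% of nucleated events) is given: cells lysed with nuclei stained by SYTOX Green, then micronucleus-gated events counted against nucleated events by flow cytometry with 488 nm excitation.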
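Wherever relative survival (nuclei to bead ratio vs DMSO control) is given: Lysed-cell nuclei stained with SYTOX Green and counted against counting beads by flow cytometry at 488 nm excitation, with vinblastine (no S9) and cyclophosphamide (plus S9) as positive controls.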

O=C(O)c1ccc([N+](=O)[O-])cc1 [4-Nitrobenzoic acid]
Conditions | hypodiploid nuclei frequency, CHO-K1 [3] [%] | micronucleus frequency, CHO-K1 [2] [%] | relative survival, CHO-K1 [1]
concentration: 4.5 (µM), S9 metabolic activation: with S9, exposure time: 3-4 hours | 0.16 | 0.84 | 102
concentration: 4.5 (µM), S9 metabolic activation: without S9, exposure time: 24 hours | 0.54 | 1.18 | 101
concentration: 5.63 (µM), S9 metabolic activation: with S9, exposure time: 3-4 hours | 0.08 | 1.38 | 89
concentration: 5.63 (µM), S9 metabolic activation: without S9, exposure time: 24 hours | 0.44 | 1.18 | 93
concentration: 7.04 (µM), S9 metabolic activation: with S9, exposure time: 3-4 hours | 0.16 | 1.2 | 97.1
concentration: 7.04 (µM), S9 metabolic activation: without S9, exposure time: 24 hours | 0.56 | 1.72 | 122
concentration: 8.8 (µM), S9 metabolic activation: with S9, exposure time: 3-4 hours | 0.3 | 0.92 | 94
concentration: 8.8 (µM), S9 metabolic activation: without S9, exposure time: 24 hours | 0.64 | 1.22 | 100
concentration: 11 (µM), S9 metabolic activation: with S9, exposure time: 3-4 hours | 0.16 | 0.9 | 120
concentration: 11 (µM), S9 metabolic activation: without S9, exposure time: 24 hours | 0.66 | 1.24 | 103
concentration: 13.7 (µM), S9 metabolic activation: with S9, exposure time: 3-4 hours | 0.22 | 1.04 | 116
concentration: 13.7 (µM), S9 metabolic activation: without S9, exposure time: 24 hours | 0.58 | 1.54 | 109
concentration: 17.2 (µM), S9 metabolic activation: with S9, exposure time: 3-4 hours | 0.22 | 0.92 | 119
concentration: 17.2 (µM), S9 metabolic activation: without S9, exposure time: 24 hours | 0.84 | 1.52 | 112
concentration: 21.5 (µM), S9 metabolic activation: with S9, exposure time: 3-4 hours | 0.2 | 1.1 | 111
concentration: 21.5 (µM), S9 metabolic activation: without S9, exposure time: 24 hours | 0.7 | 1.38 | 121
concentration: 26.8 (µM), S9 metabolic activation: with S9, exposure time: 3-4 hours | 0.12 | 0.96 | 122
concentration: 26.8 (µM), S9 metabolic activation: without S9, exposure time: 24 hours | 0.3 | 1.58 | 96
concentration: 33.6 (µM), S9 metabolic activation: with S9, exposure time: 3-4 hours | 0.1 | 0.98 | 115
concentration: 33.6 (µM), S9 metabolic activation: without S9, exposure time: 24 hours | 0.54 | 1.5 | 99.1
concentration: 41.9 (µM), S9 metabolic activation: with S9, exposure time: 3-4 hours | 0.2 | 0.9 | 112
concentration: 41.9 (µM), S9 metabolic activation: without S9, exposure time: 24 hours | 0.64 | 1.64 | 101
concentration: 52.4 (µM), S9 metabolic activation: with S9, exposure time: 3-4 hours | 0.18 | 0.72 | 117
concentration: 52.4 (µM), S9 metabolic activation: without S9, exposure time: 24 hours | 0.4 | 1.34 | 123
concentration: 65.5 (µM), S9 metabolic activation: with S9, exposure time: 3-4 hours | 0.08 | 1.18 | 127
concentration: 65.5 (µM), S9 metabolic activation: without S9, exposure time: 24 hours | 0.56 | 1.62 | 104
concentration: 81.9 (µM), S9 metabolic activation: with S9, exposure time: 3-4 hours | 0.08 | 0.86 | 133
concentration: 81.9 (µM), S9 metabolic activation: without S9, exposure time: 24 hours | 0.44 | 1.44 | 124
concentration: 102 (µM), S9 metabolic activation: with S9, exposure time: 3-4 hours | 0.14 | 1.12 | 130
concentration: 102 (µM), S9 metabolic activation: without S9, exposure time: 24 hours | 0.78 | 1.52 | 97
concentration: 128 (µM), S9 metabolic activation: with S9, exposure time: 3-4 hours | 0.18 | 1 | 150
concentration: 128 (µM), S9 metabolic activation: without S9, exposure time: 24 hours | 0.9 | 1.68 | 127
concentration: 160 (µM), S9 metabolic activation: with S9, exposure time: 3-4 hours | 0.1 | 1.08 | 144
concentration: 160 (µM), S9 metabolic activation: without S9, exposure time: 24 hours | 0.64 | 0.92 | 115
concentration: 200 (µM), S9 metabolic activation: with S9, exposure time: 3-4 hours | 0.32 | 0.88 | 138
concentration: 200 (µM), S9 metabolic activation: without S9, exposure time: 24 hours | 1.18 | 2.12 | 117

O=[N+]([O-])c1ccc(O)cc1 [4-Nitrophenol]
Conditions | hypodiploid nuclei frequency, CHO-K1 [3] [%] | micronucleus frequency, CHO-K1 [2] [%] | relative survival, CHO-K1 [1]
concentration: 4.5 (µM), S9 metabolic activation: with S9, exposure time: 3-4 hours | 0.28 | 0.72 | 120
concentration: 4.5 (µM), S9 metabolic activation: without S9, exposure time: 24 hours | 3.52 | 1.34 | 119
concentration: 5.63 (µM), S9 metabolic activation: with S9, exposure time: 3-4 hours | 0.38 | 1.74 | 124
concentration: 5.63 (µM), S9 metabolic activation: without S9, exposure time: 24 hours | 2.06 | 1.66 | 105
concentration: 7.04 (µM), S9 metabolic activation: with S9, exposure time: 3-4 hours | 0.22 | 1.36 | 105
concentration: 7.04 (µM), S9 metabolic activation: without S9, exposure time: 24 hours | 1.42 | 1.3 | 93.5
concentration: 8.8 (µM), S9 metabolic activation: with S9, exposure time: 3-4 hours | 0.2 | 0.9 | 93.8
concentration: 8.8 (µM), S9 metabolic activation: without S9, exposure time: 24 hours | 1.36 | 2.18 | 96.9
concentration: 11 (µM), S9 metabolic activation: with S9, exposure time: 3-4 hours | 0.18 | 0.72 | 102
concentration: 11 (µM), S9 metabolic activation: without S9, exposure time: 24 hours | 0.96 | 1.84 | 92.9
concentration: 13.7 (µM), S9 metabolic activation: with S9, exposure time: 3-4 hours | 0.16 | 0.88 | 109
concentration: 13.7 (µM), S9 metabolic activation: without S9, exposure time: 24 hours | 1.24 | 2.14 | 119
concentration: 17.2 (µM), S9 metabolic activation: with S9, exposure time: 3-4 hours | 0.14 | 1.02 | 103
concentration: 17.2 (µM), S9 metabolic activation: without S9, exposure time: 24 hours | 1.02 | 1.86 | 130
concentration: 21.5 (µM), S9 metabolic activation: with S9, exposure time: 3-4 hours | 0.18 | 1.08 | 78.6
concentration: 21.5 (µM), S9 metabolic activation: without S9, exposure time: 24 hours | 0.8 | 1.54 | 104
concentration: 26.8 (µM), S9 metabolic activation: with S9, exposure time: 3-4 hours | 0.32 | 1.12 | 149
concentration: 26.8 (µM), S9 metabolic activation: without S9, exposure time: 24 hours | 1.06 | 0.96 | 65.4
concentration: 33.6 (µM), S9 metabolic activation: with S9, exposure time: 3-4 hours | 0.2 | 0.74 | 98.1
concentration: 33.6 (µM), S9 metabolic activation: without S9, exposure time: 24 hours | 0.68 | 0.78 | 62.1
concentration: 41.9 (µM), S9 metabolic activation: with S9, exposure time: 3-4 hours | 0.26 | 1.02 | 127
concentration: 41.9 (µM), S9 metabolic activation: without S9, exposure time: 24 hours | 1.1 | 1.24 | 72.7
concentration: 52.4 (µM), S9 metabolic activation: with S9, exposure time: 3-4 hours | 0.32 | 0.86 | 115
concentration: 52.4 (µM), S9 metabolic activation: without S9, exposure time: 24 hours | 1.02 | 0.9 | 79.7
concentration: 65.5 (µM), S9 metabolic activation: with S9, exposure time: 3-4 hours | 0.44 | 1.32 | 84.8
concentration: 65.5 (µM), S9 metabolic activation: without S9, exposure time: 24 hours | 1.16 | 1.2 | 61.6
concentration: 81.9 (µM), S9 metabolic activation: with S9, exposure time: 3-4 hours | 0.22 | 0.8 | 97.2
concentration: 81.9 (µM), S9 metabolic activation: without S9, exposure time: 24 hours | 1.48 | 1.4 | 74.4
concentration: 102 (µM), S9 metabolic activation: with S9, exposure time: 3-4 hours | 0.32 | 1.06 | 96
concentration: 102 (µM), S9 metabolic activation: without S9, exposure time: 24 hours | 1.24 | 1.7 | 67.1
concentration: 128 (µM), S9 metabolic activation: with S9, exposure time: 3-4 hours | 0.32 | 0.78 | 104
concentration: 128 (µM), S9 metabolic activation: without S9, exposure time: 24 hours | 1.5 | 1.46 | 65.4
concentration: 160 (µM), S9 metabolic activation: with S9, exposure time: 3-4 hours | 0.32 | 0.78 | 112
concentration: 160 (µM), S9 metabolic activation: without S9, exposure time: 24 hours | 1.36 | 1.9 | 59.5
concentration: 200 (µM), S9 metabolic activation: with S9, exposure time: 3-4 hours | 0.12 | 0.82 | 96.3
concentration: 200 (µM), S9 metabolic activation: without S9, exposure time: 24 hours | 1.36 | 1.98 | 68.3
